Some of the results follow.
B1: PhoQ; a variant is named by its letters at X, in order, P23837 (parent)
chain: MKKLLRLFFPLSLRVRFLLATAAVVLVLSLAYGMVALIGYSVSFDKTTFRLLRGESNLFYTLAKWENNKLHVELPENIDKQSPTMTLIYDENGQLLWAQRDVPWLMKMIQPDWLKSNGFHEIEADVNDTSLLLSGDHSIQQQLQEVREDDDDAEMTHSVAVNVYPATSRMPKLTIVVVDTIPVELKSSYMVWSWFIYVLSANLLLVIPLLWVAAWWSLRPIEALAKEVRELEEHNRELLNPATTRELTSLVRNLNRLLKSERERYDKYRTTLTDLTHSLKTPLXXLQXXLRSLRSEKMSVSDAEPVMLEQISRISQQIGYYLHRASMRGGTLLSRELHPVAPLLDNLTSALNKVYQRKGVNISLDISPEISFVGEQNDFVEVMGNVLDNACKYCLEFVEISARQTDEHLYIVVEDDGPGIPLSKREVIFDRGQRVDTLRPGQGVGLAVAREITEQYEGKIVAGESMLGGARMEVIFGRQHSAPKDE

Variants of: B1
Assay: enrichment ratio after two sorts for PhoP signalling (ratio (wild type AVST 3.29)); higher = more functional
Details: with PhoP (E. coli)
With GTKS the enrichment ratio was ≤ 0.25. With FGEH the enrichment ratio was ≤ 0.25. For RNIF, the enrichment ratio was ≤ 0.25. With LARQ the enrichment ratio was ≤ 0.25. With IPEP the enrichment ratio was ≤ 0.25. For VFPQ, the enrichment ratio was ≤ 0.25. With HCAI the enrichment ratio was ≤ 0.25. IMRQ was tested, and the enrichment ratio was ≤ 0.25. For FFSC, the enrichment ratio was ≤ 0.25. With YLRI the enrichment ratio was ≤ 0.25. KARC was tested, and the enrichment ratio was ≤ 0.25. For RTAQ, the enrichment ratio was ≤ 0.25. DIYD was tested, and the enrichment ratio was ≤ 0.25. AVRA was tested, and the enrichment ratio was ≤ 0.25. With AIIR the enrichment ratio was 1.02. DVRD was tested, and the enrichment ratio was ≤ 0.25. For ACKL, the enrichment ratio was ≤ 0.25. With APWH the enrichment ratio was ≤ 0.25. With RFQL the enrichment ratio was ≤ 0.25. MHWR was tested, and the enrichment ratio was ≤ 0.25. For RIIL, the enrichment ratio was ≤ 0.25. In the case of VTEY, the enrichment ratio is reported as ≤ 0.25. For PQMT, the enrichment ratio was ≤ 0.25. DENF was tested, and the enrichment ratio was ≤ 0.25. In the case of AHST, the enrichment ratio is reported as ≤ 0.25. For TKYH, the enrichment ratio was ≤ 0.25. In the case of VSWN, the enrichment ratio is reported as ≤ 0.25. In the case of GWRY, the enrichment ratio is reported as ≤ 0.25. For DTAK, the enrichment ratio was ≤ 0.25. For HKWP, the enrichment ratio was ≤ 0.25. With MQDV the enrichment ratio was ≤ 0.25. FDMP was tested, and the enrichment ratio was ≤ 0.25. With EATM the enrichment ratio was ≤ 0.25. LTET was tested, and the enrichment ratio was ≤ 0.25. HFHA was tested, and the enrichment ratio was ≤ 0.25. For GVPD, the enrichment ratio was ≤ 0.25. NEHE was tested, and the enrichment ratio was ≤ 0.25. For FSNG, the enrichment ratio was ≤ 0.25. In the case of MPHR, the enrichment ratio is reported as ≤ 0.25. QPNH was tested, and the enrichment ratio was ≤ 0.25. For GHYR, the enrichment ratio was ≤ 0.25. YWYI was tested, and the enrichment ratio was ≤ 0.25. With PPGW the enrichment ratio was ≤ 0.25. RHQF was tested, and the enrichment ratio was ≤ 0.25. In the case of VWQA, the enrichment ratio is reported as ≤ 0.25. KLHI was tested, and the enrichment ratio was ≤ 0.25. For DLPQ, the enrichment ratio was ≤ 0.25. For TFKP, the enrichment ratio was ≤ 0.25. With MAPC the enrichment ratio was ≤ 0.25. With ASCY the enrichment ratio was 0.505. In the case of KTGM, the enrichment ratio is reported as ≤ 0.25. For EYDI, the enrichment ratio was ≤ 0.25. For RKPW, the enrichment ratio was ≤ 0.25. VGFV was tested, and the enrichment ratio was ≤ 0.25. In the case of WSFP, the enrichment ratio is reported as ≤ 0.25. For ATFM, the enrichment ratio was ≤ 0.25. For KVGS, the enrichment ratio was ≤ 0.25. With MKFI the enrichment ratio was ≤ 0.25. In the case of VDHS, the enrichment ratio is reported as ≤ 0.25. With GHDG the enrichment ratio was ≤ 0.25. In the case of KPTL, the enrichment ratio is reported as ≤ 0.25. For WSVN, the enrichment ratio was ≤ 0.25. In the case of ILTE, the enrichment ratio is reported as ≤ 0.25. For CLGI, the enrichment ratio was ≤ 0.25. With FWWQ the enrichment ratio was ≤ 0.25. For AHNQ, the enrichment ratio was ≤ 0.25. With SATE the enrichment ratio was ≤ 0.25. In the case of IDFK, the enrichment ratio is reported as ≤ 0.25. For TAWD, the enrichment ratio was ≤ 0.25. For YSCR, the enrichment ratio was ≤ 0.25. In the case of GAEK, the enrichment ratio is reported as ≤ 0.25. For DQHT, the enrichment ratio was ≤ 0.25. With VETS the enrichment ratio was ≤ 0.25. For NTPY, the enrichment ratio was ≤ 0.25. WNNH was tested, and the enrichment ratio was ≤ 0.25. With YAIL the enrichment ratio was ≤ 0.25. In the case of PSKI, the enrichment ratio is reported as ≤ 0.25. In the case of WTIW, the enrichment ratio is reported as ≤ 0.25. Variant SGSV has an enrichment ratio of 12.1. RYWE was tested, and the enrichment ratio was ≤ 0.25. In the case of RTFD, the enrichment ratio is reported as ≤ 0.25. In the case of KLSA, the enrichment ratio is reported as ≤ 0.25. YPPD was tested, and the enrichment ratio was ≤ 0.25. In the case of EPWW, the enrichment ratio is reported as ≤ 0.25. In the case of RVPA, the enrichment ratio is reported as ≤ 0.25. With GRFQ the enrichment ratio was ≤ 0.25. For DIRI, the enrichment ratio was ≤ 0.25. With TGTT the enrichment ratio was 11.2. MEWV was tested, and the enrichment ratio was 7.18. With TPDW the enrichment ratio was ≤ 0.25. With LKTK the enrichment ratio was ≤ 0.25. In the case of MDES, the enrichment ratio is reported as ≤ 0.25. VFAV was tested, and the enrichment ratio was ≤ 0.25. With VPSQ the enrichment ratio was ≤ 0.25. HEDQ was tested, and the enrichment ratio was ≤ 0.25. In the case of LFEP, the enrichment ratio is reported as ≤ 0.25. For APCN, the enrichment ratio was ≤ 0.25. For FHVG, the enrichment ratio was ≤ 0.25. GCVW was tested, and the enrichment ratio was ≤ 0.25. In the case of RQAY, the enrichment ratio is reported as ≤ 0.25. In the case of IRKF, the enrichment ratio is reported as ≤ 0.25. RIQG was tested, and the enrichment ratio was ≤ 0.25. With WCRK the enrichment ratio was ≤ 0.25. MAPQ was tested, and the enrichment ratio was ≤ 0.25. In the case of RYFD, the enrichment ratio is reported as ≤ 0.25. QFGR was tested, and the enrichment ratio was ≤ 0.25. With VNKW the enrichment ratio was ≤ 0.25. In the case of KPNY, the enrichment ratio is reported as ≤ 0.25. In the case of LVQG, the enrichment ratio is reported as ≤ 0.25. For KAIV, the enrichment ratio was ≤ 0.25. In the case of KLFI, the enrichment ratio is reported as ≤ 0.25. ESTF was tested, and the enrichment ratio was ≤ 0.25. In the case of HGEL, the enrichment ratio is reported as ≤ 0.25. For RRRP, the enrichment ratio was ≤ 0.25. With ACNI the enrichment ratio was ≤ 0.25. With WWWL the enrichment ratio was ≤ 0.25. FFPA was tested, and the enrichment ratio was ≤ 0.25. HRGF was tested, and the enrichment ratio was ≤ 0.25. INVD was tested, and the enrichment ratio was ≤ 0.25. With LTQI the enrichment ratio was ≤ 0.25. Work on AGCR yielded an enrichment ratio of 1.84. DEDI was tested, and the enrichment ratio was ≤ 0.25. With RMTI the enrichment ratio was ≤ 0.25. For AMMI, the enrichment ratio was 15. Work on VPNF yielded an enrichment ratio of 2.26. In the case of TLRD, the enrichment ratio is reported as ≤ 0.25. For LCGI, the enrichment ratio was ≤ 0.25. FTSL was tested, and the enrichment ratio was ≤ 0.25. MFQN was tested, and the enrichment ratio was ≤ 0.25. Variant TTYL has an enrichment ratio of 11.1. In the case of HGGV, the enrichment ratio is reported as ≤ 0.25. In the case of ELSP, the enrichment ratio is reported as ≤ 0.25. WWNP was tested, and the enrichment ratio was ≤ 0.25. In the case of AGWN, the enrichment ratio is reported as ≤ 0.25. MVWC was tested, and the enrichment ratio was ≤ 0.25. For TLWQ, the enrichment ratio was ≤ 0.25. For YAVY, the enrichment ratio was ≤ 0.25. With IPQI the enrichment ratio was ≤ 0.25. For VMEL, the enrichment ratio was ≤ 0.25. QHSS was tested, and the enrichment ratio was ≤ 0.25. QASE showed an enrichment ratio of 1.94. In the case of KCDM, the enrichment ratio is reported as ≤ 0.25. For VMPN, the enrichment ratio was ≤ 0.25. For NKYC, the enrichment ratio was ≤ 0.25. LNYD was tested, and the enrichment ratio was ≤ 0.25. For TGQC, the enrichment ratio was ≤ 0.25. In the case of YILY, the enrichment ratio is reported as ≤ 0.25. With WPPC the enrichment ratio was ≤ 0.25. With PTHT the enrichment ratio was ≤ 0.25. With WKRP the enrichment ratio was ≤ 0.25. In the case of IDHK, the enrichment ratio is reported as ≤ 0.25. With YSFW the enrichment ratio was ≤ 0.25. For HSGF, the enrichment ratio was 0.251. With SGYK the enrichment ratio was ≤ 0.25. In the case of MFAR, the enrichment ratio is reported as ≤ 0.25. RIKT was tested, and the enrichment ratio was ≤ 0.25. With SWHG the enrichment ratio was ≤ 0.25. IQPT was tested, and the enrichment ratio was ≤ 0.25. In the case of DHDG, the enrichment ratio is reported as ≤ 0.25. In the case of ARYS, the enrichment ratio is reported as ≤ 0.25. For KWTH, the enrichment ratio was ≤ 0.25. In the case of QIWD, the enrichment ratio is reported as ≤ 0.25. For LKVI, the enrichment ratio was ≤ 0.25. In the case of FDCH, the enrichment ratio is reported as ≤ 0.25. In the case of TRCW, the enrichment ratio is reported as ≤ 0.25. In the case of MQVD, the enrichment ratio is reported as ≤ 0.25. In the case of LNFR, the enrichment ratio is reported as ≤ 0.25. In the case of NSMS, the enrichment ratio is reported as ≤ 0.25. For IYWC, the enrichment ratio was ≤ 0.25. YWDP was tested, and the enrichment ratio was ≤ 0.25. In the case of GFNV, the enrichment ratio is reported as ≤ 0.25. AYFM was tested, and the enrichment ratio was ≤ 0.25. For EPRQ, the enrichment ratio was ≤ 0.25. HGAD was tested, and the enrichment ratio was ≤ 0.25. Variant SMSE has an enrichment ratio of 5.68. With EVFG the enrichment ratio was ≤ 0.25. For LYLA, the enrichment ratio was ≤ 0.25. In the case of MQAY, the enrichment ratio is reported as ≤ 0.25. With FFSA the enrichment ratio was ≤ 0.25. With KSTG the enrichment ratio was ≤ 0.25. In the case of FPTC, the enrichment ratio is reported as ≤ 0.25. For EIGP, the enrichment ratio was ≤ 0.25. With DTWV the enrichment ratio was ≤ 0.25. In the case of RSGT, the enrichment ratio is reported as ≤ 0.25. With RNVC the enrichment ratio was ≤ 0.25. NRTP was tested, and the enrichment ratio was ≤ 0.25. With IPTC the enrichment ratio was ≤ 0.25. LWLP showed an enrichment ratio of 0.426. With LLHL the enrichment ratio was ≤ 0.25. With DCVS the enrichment ratio was ≤ 0.25. With VAHT the enrichment ratio was ≤ 0.25. With MHKA the enrichment ratio was ≤ 0.25. PFTP was tested, and the enrichment ratio was ≤ 0.25. In the case of TGFA, the enrichment ratio is reported as 1.36. With STCN the enrichment ratio was 8.56.

Source: a collection of fitness landscapes (doi:10.1126/science.1257360)
